Assay results taken from paper PMC5515408.
Some of the results follow. At the low end of the ranking the order means little.

Molecular target: MAX:MAX (p21) (UniProt P61244-2)
Assay: protein-binding microarray (anti-MAX antibody)
Conditions: PBM: 15 mM Tris-HCl pH 7.5, 100 mM KCl, 0.075% NP40, 7.5 mM beta-mercaptoethanol, 375 ng/ul BSA, 8 ng/ul poly(dA-dT):(dA-dT), 550 ng complex, 60 min, room …; high values mean tight binding; double strand, one strand shown; sequences stand for … in CCGGC…TTAATAGCTAAGATTACTATATCGACG

Sequence	binding signal (log2 normalized fluorescence)
TGACGTATGGTA	0.599
TGACACCATGTA	1.19
TGACACGAGATA	2.72
TGAGTAGTAGTA	-1.19
TGACAAAGAGTA	-0.735
TGAAGCGGGGTA	0.358
TGAACATTCGTA	-0.0864
TGAACAAAAGTA	-0.814
TGAAATAATGTA	-0.485
TGAGCCGTCGTA	-1.09
GGACAACTGGTA	-0.317
CCACACGTGGTA	2.95
TGATGGTACGTA	0.184
TGACCACGTGTA	3.2
TGAGCGTCTGTA	-0.723
TGAACGACTGTA	-0.347
TGAGTATACGTA	-0.889
TGAGTATAGGTA	-1.07
TGACTAGTCGTA	-0.905
TGAGAGTTGGTA	-1.2
TGACAACAGGTA	-0.156
TGATTGTCAGTA	-0.299

Sequence	binding signal (log2 normalized fluorescence)
TGAGTAGGGGTA	-0.0749
TGAAGCGAGGTA	1.05
TGACTAGGTGTA	-0.804
TGACACGTCGCA	2.06
TGAGCATGTGTA	3.12
TGAGGCGAGTTT	-0.321
TGAATGATTGTA	0.0572
TGACGAACAGTA	-0.468
TGAGTTGCGGTA	-0.73
TGACGTACCGTA	-0.228
TGACTGGTTGTA	-0.258
TGATTTAGGGTA	-1.09
TGAGATGTAGTA	-0.645
TGAACTTTAGTA	-0.73
TGATCTTGCGTA	-0.543
TGACACGATTTA	1.27
TGACTCTAAGTA	-1.04
TGATTCTCTGTA	-1.13
TGAAACTGTGTA	-0.413
TGACCTACCGTA	-0.467
TGACGTCATGTA	0.523
TGACAGATTGTA	-0.295

Sequence	binding signal (log2 normalized fluorescence)
TGAGCTACCGTA	-0.852
TGACCCTTTGTA	-0.524
TGACGCAGGGTA	-0.104
TGATAGACGGTA	-0.796
TGACAAAAGGTA	-0.313
TCTCACGTGGTA	3.5
TGAACTCGAGTA	0.282
TGACACGGGATC	2.12
TGACACGTGACT	3.21
TGAGGTTGAGTA	-0.703
TGACTGTCTGTA	-0.155
TGAGTGATTGTA	-0.206
TGACTGCAAGTA	-0.0915
TGAGTGAGAGTA	-0.462
TGACGTATTGTA	-0.527
TGATGCACCGTA	0.313
TGATGAGAGGTA	-0.559
TGAGATGGTGTA	-0.402
TGAATGGGCGTA	0.274
TGACACGTGGCA	3.28
TGAAGATCAGTA	-0.638
TGAGCTGAGGTA	-0.753

Sequence	binding signal (log2 normalized fluorescence)
TGACTTTTAGTA	-1.01
CGCCACGTAGTA	1.58
TGAGGTTAAGTA	-0.992
TGACTCCCGGTA	-0.467
TGACGCTTCGTA	-0.566
CGACATGTGGTA	3.18
TGAGTATGGGTA	-0.499
TGAGTCGCGGTA	-0.622
TGACAACTGGTT	-0.38
TGATTGGTAGTA	-0.908
TGATAGGATGTA	-0.515
TGATAAATGGTA	-0.151
TGATAAATAGTA	-1.16
TGATAGTTAGTA	-1.29
TGACAGCCAGTA	0.0891
TGATAACACGTA	0.523
TGACGCCGCGTA	-0.354
TGAAACCATGTA	0.529
TGATCAGGTGTA	2.23
TGACCAATGGTA	0.121
TGAAGTTGTGTA	-0.357
TGAAACTACGTA	-0.591
